According to PubChem BioAssay AID540267 (National Center for Advancing Translational Sciences (NCATS), 2011):
The campaign covered roughly 340,000 compounds. About 530 (0.16%) were called active. Inconclusive means that the source gave no clear call. Such entries were picked first, then a sample of the others. No stated cut-off is given here; in the data, active means activity change below about -80%; inconclusive means between about -30% and that limit; inactive means weaker than that.

Assay: Small Molecules that selectively kill Giardia lamblia: qHTS;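 further: parasites exposed to compound for two days anaerobically before the ATP read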
Conditions: Giardia lamblia trophozoite viability; at 7.66 µM; active compounds read low
Outline: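 Trophozoite viability was measured as ATP-dependent luminescence, read 15-30 min after reagent addition. Before that, parasites at 100 cells/well were exposed to compounds for 48 h, anaerobically, at 37 deg C.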
On the % scale 0 is the no-effect control and ±100 the full control effect.

Row | Compound | activity change
1 | CCOc1cc(/C=C2\C(=N)N3N=C(S(=O)(=O)CC)SC3=NC2=O)ccc1OC(=O)c1ccco1 | inactive: 7.95%
2 | O=C(O)c1ccccc1NCc1cccnc1 | inconclusive: -37.6% [inhibitor]
3 | Cc1ccc(S(=O)(=O)N(C)c2ccccc2C(=O)N2CCCC2)cc1 | inconclusive: -35.2% [inhibitor]
4 | Nc1cc(C(=O)OCC(=O)NCc2ccco2)ccc1Cl | inconclusive: -32.4% [inhibitor]
5 | Cc1ccc(C(=O)COC(=O)CN2C(=O)C3C4CCC(C4)C3C2=O)cc1[N+](=O)[O-] (stereo not given) | inconclusive: -34.1% [inhibitor]
6 | COCCNc1ncnc2c1[nH]c1ccccc12 | inactive: 6.27%
7 | COc1cc(SC)ccc1C(=O)OCC(=O)NC1CCCCC1 | inconclusive: -32.6% [inhibitor]
8 | Cc1nn2c(NCc3cccnc3)c3c(nc2c1-c1ccccc1)CCC3 | inactive: -21.5%
9 | O=C(Nc1cc(Br)ccc1O)c1cc(-c2ccccc2)on1 | inconclusive: -44.6% [inhibitor]
10 | O=C(/C=C/c1ccccc1)Nc1ccc2c(c1)OCCO2 | inconclusive: -36.5% [inhibitor]
11 | Cc1cc(N2C(=O)C=CC2=O)c([N+](=O)[O-])cc1C | inconclusive: -36.1% [inhibitor]
12 | CC(C)NC(=O)c1cc2cc(Br)ccc2oc1=O | inconclusive: -44.2% [inhibitor]
13 | COc1cc(/C=C2/SC(=O)N(CC(=O)N3CCCC3)C2=O)ccc1Oc1ccc([N+](=O)[O-])cn1 | inconclusive: -41.3% [inhibitor]
14 | O=[N+]([O-])c1ccccc1S(=O)(=O)Oc1ccc(/C=N/n2cnnc2)cc1 | active: -80.8%
15 | O=C(Nc1ccc(S(=O)(=O)N2CCCC2)cc1Cl)C1=COCCO1 | inconclusive: -37.2% [inhibitor]
16 | Cc1ccc(NC(=O)CN2C(=O)NC3(CCc4ccccc43)C2=O)cc1 (stereo not given) | inconclusive: -34.5% [inhibitor]
17 | COCCN=c1scc(-c2ccco2)n1/N=C/c1ccc(O)c(O)c1O | inactive: 5.68%
18 | Cc1ccc(OCC(=O)Nc2ccc3c(c2)nc(CCN2CCN(C)CC2)n3C)cc1 | inconclusive: -33.9% [inhibitor]
19 | COc1cccc(C2C(C(=O)c3cc4ccccc4o3)=C(O)C(=O)N2c2cc(C)on2)c1 (stereo not given) | inactive: 26.6%
20 | N#Cc1ccc(S(=O)(=O)N2CCc3[nH]c4ccc(F)cc4c3C2)cc1 | inactive: 1.28%
21 | COc1cc(C(=S)N2CCOCC2)ccc1OC(=O)c1ccc([N+](=O)[O-])cc1[N+](=O)[O-] | inactive: -9.56%
22 | O=C(Cn1cnc2c(nnn2Cc2ccc(Cl)cc2)c1=O)N1CCN(c2ccccc2)CC1 | inconclusive: -36.4% [inhibitor]
23 | NC(=O)c1oc2ccccc2c1NC(=O)c1ccc([N+](=O)[O-])o1 | active: -88.1%
24 | COc1ccc(-n2nc([N+](=O)[O-])c(=NCc3ccc4c(c3)OCO4)n2O)cc1 | active: -92.4%
25 | C#CC(CC)(CC)NC(=O)NC1CCCCC1 | inconclusive: -35.6% [inhibitor]
26 | Cc1cc([N+](=O)[O-])nn1Cc1ccc(F)cc1 | inconclusive: -45.7% [inhibitor]
27 | Cn1c(N/N=C/c2cc3ccccc3nc2Cl)nc2ccccc21 | active: -87.8%

Row | Compound | activity change
28 | COc1cc(NC(=O)c2cc3ccccc3cc2O)c(OC)cc1Cl | inconclusive: -39% [inhibitor]
29 | O=C(c1cccc(Cl)c1)N1CCN(Cc2ccccc2)CC1 | inconclusive: -38.8% [inhibitor]
30 | CCCOC(=O)/C(=C\c1ccc([N+](=O)[O-])o1)NC(=O)c1ccccc1 | inconclusive: -79.3% [inhibitor]
31 | COc1ccc(NC(=O)c2ccco2)c(NC(=O)c2ccc([N+](=O)[O-])cc2)c1 | inconclusive: -59.1% [inhibitor]
32 | O=C(NCc1cccc(C(F)(F)F)c1)c1ccc[nH]1 | inconclusive: -37.9% [inhibitor]
33 | CCC(CO)Nc1ncc([N+](=O)[O-])cc1C#N (stereo not given) | inconclusive: -33% [inhibitor]
34 | CCC(C)NC(=O)COC(=O)c1ccc(Cl)cc1O (stereo not given) | inactive: 20.3%
35 | CN=c1scc(-c2ccc(F)cc2)n1/N=C/c1ccc(O)c(O)c1 | inconclusive: -40% [inhibitor]
36 | CCOCC(=O)Nc1nc(C)cc(C)n1 | inconclusive: -36.7% [inhibitor]
37 | COc1cccc(/C=N/NC(=S)Nc2cccc(C(=O)O)c2)c1O | inconclusive: -35% [inhibitor]
38 | Fc1ccc2cc(-c3ccsc3)ncc2c1 | inconclusive: -56.8% [inhibitor]
39 | CN1CCN(c2ccc(NC(=O)c3sc4ccccc4c3Cl)cc2)CC1 | inconclusive: -69.1% [inhibitor]
40 | O=C(COC(=O)COc1ccc(Cl)cc1)NC1CCCC1 | inconclusive: -36.9% [inhibitor]
41 | CCOc1ccc(Cl)cc1C(c1c(C)[nH][nH]c1=O)c1c(C)[nH][nH]c1=O | inconclusive: -37.8% [inhibitor]
42 | COc1ccc(CC(=O)N2N=C(C)CC2(O)c2cccnc2)cc1OC (stereo not given) | inconclusive: -35.5% [inhibitor]
43 | CN(CC(=O)Nc1cccc(C(F)(F)F)c1)C1=NS(=O)(=O)c2ccccc21 | inconclusive: -31.5% [inhibitor]
44 | N#Cc1c(-c2ccccc2)nc(SCC(=O)Nc2nnc(C(F)(F)F)s2)[nH]c1=O | inactive: -21.2%
45 | CCOC(=O)c1c(C)[nH]c2c1-c1ccccc1C(=O)C2=O | inconclusive: -64.5% [inhibitor]
46 | COc1ccc(CC(=O)NCC(=O)Nc2ccccc2Br)cc1 | inconclusive: -45.7% [inhibitor]
47 | O=C1CSc2ccc(C(=O)Nc3cccc(S(=O)(=O)Nc4ccc(Br)cc4)c3)cc2N1 | inconclusive: -30.3% [inhibitor]
48 | C=CCNc1nc(Nc2ccc([N+](=O)[O-])cc2)nc(N2CCCC2)n1 | inactive: 7.02%
49 | O=C(CN1C(=O)NC2(CCCC2)C1=O)OCc1ccc(Br)cc1 | inactive: -25.5%
50 | [O-][n+]1c2ccccc2[n+]([O-])c2cc(O)ccc21 | inconclusive: -32.4% [inhibitor]
51 | Cc1ccc2c(c1)[C@H]1OCC[C@H]1[C@@H](c1ccncc1)N2 | inconclusive: -33.5% [inhibitor]
52 | Nc1ncc(Br)cc1S(=O)(=O)NCCC(=O)NCc1ccc(F)cc1 | inconclusive: -35.5% [inhibitor]
53 | COc1ccc(CNC(=O)COC(=O)CC2CCCC2)cc1 | inconclusive: -31.7% [inhibitor]
54 | CN(C)/C=C/C(=O)c1cnc(-c2cccc(Cl)c2)s1 | inactive: -0.819%

Row | Compound | activity change
55 | Cc1ccsc1C(=O)Nc1ccc2c(c1)OCCO2 | inconclusive: -45.1% [inhibitor]
56 | NC(=O)c1ccc(Nc2ccc([N+](=O)[O-])cc2[N+](=O)[O-])cc1 | inconclusive: -72.5% [inhibitor]
57 | Cc1cccc(NS(=O)(=O)c2ccc(-c3cnc(C4CC4)o3)cc2)c1C | inconclusive: -33.4% [inhibitor]
58 | CC(C)c1ccc(C(CC(=O)c2ccc(Cl)cc2)C(=O)O)cc1 (stereo not given) | inactive: -12.7%
59 | O=[N+]([O-])c1ccc(-c2ccn[nH]2)o1 | active: -85.5%
60 | COc1cccc(NC(=O)C2COc3ccccc3O2)c1 (stereo not given) | inactive: 25.2%
61 | O=C(Nc1nc2ccccc2[nH]1)c1cccc([N+](=O)[O-])c1 | inactive: -3.97%
62 | COC(=O)c1nn(-c2nc(-c3cccc(OC)c3)cc(C(F)(F)F)n2)cc1[N+](=O)[O-] | inconclusive: -39.4% [inhibitor]
63 | Cn1c(SCC(=O)NC2CC2)nnc1-c1ccccc1Cl | inconclusive: -35.7% [inhibitor]
64 | COc1ccc(C2CC(c3ccc4ccccc4c3OC(C)=O)=NN2C(=O)/C=C/c2ccccc2)cc1 (stereo not given) | inactive: 3.95%
65 | CC(=O)Oc1cccc(C(=O)Nc2cccc(C(=O)Nc3ccccc3C(=O)O)c2)c1 | inconclusive: -33.5% [inhibitor]
66 | O=C(NCCSc1ccccc1)c1ccc(Br)cc1 | inactive: -7.82%
67 | COc1cccc(C(=O)Nc2cc(NC(=O)c3cccs3)ccc2C)c1OC | inconclusive: -31.8% [inhibitor]
68 | CCOC(=O)Cn1c(S(=O)(=O)Cc2ccc(F)cc2)nc(-c2ccccc2)c1-c1ccccc1 | inconclusive: -32.1% [inhibitor]
69 | COc1ccccc1Nc1nc(NCC2CCCO2)c2ccccc2n1 (stereo not given) | inactive: 16.3%
70 | Cc1ccc(S(=O)(=O)CC(=O)Nc2ncc([N+](=O)[O-])s2)cc1 | active: -83.9%
71 | O=C(CCCn1cnc([N+](=O)[O-])n1)Nc1ccc(F)c(Cl)c1 | inconclusive: -60.3% [inhibitor]
72 | O=C(CSc1cccc2cccnc12)N/N=C/c1ccc(O)cc1 | inactive: 24%
73 | CCCCCCCCCC[n+]1cccc(C(=O)N(CC)CC)c1 | inactive: -2.63%
74 | COc1ccc(-c2cn3ccccc3n2)cc1 | inconclusive: -65.6% [inhibitor]
75 | O=c1c2ccccc2c2c(O)nc(-c3ccccc3)n2n1Cc1ccccc1 | inactive: -16.5%
76 | CCN(CCCNS(=O)(=O)c1ccc2c(c1)oc(=O)n2C)c1cccc(C)c1 | inconclusive: -38.2% [inhibitor]
77 | Clc1ccc(-c2nc3cc(CN4CCCCC4)ccc3o2)cc1 | inactive: 8.85%
78 | COc1cccc(-c2nc(NCc3ccccc3)c3ccccc3n2)c1O | inactive: 35.9%
79 | COc1ccc(NC(=O)C2CCCN(CCCc3ccccc3)C2)cc1OCC(C)C (stereo not given) | inactive: -9.81%
80 | CC1=CSC2=NC(=O)/C(=C\c3cccn3-c3ccccc3)C(=N)N12 | inactive: -13.3%
